According to ChEMBL document CHEMBL4888484, “Replenishing the malaria drug discovery pipeline: Screening and hit evaluation of the MMV Hit Generation Library 1 (HGL1) against asexual blood stage Plasmodium falciparum ,using a nano luciferase reporter read-out” (2022):
Values joined by “and” are separate entries in the source; they are usually repeats but may differ in a detail not shown here. Equal values may be shown once. Among all 150,000 compounds or so, about 540 (0.36%) showed an effect of 50% or more. Some of the results follow.

Tested on: Plasmodium falciparum
Experiment: Primary screen in NF54 nanoGlo assay, in single point, at 2uM, 72h; a lower Z score goes with more inhibition
Assay type: functional, Erythrocyte
Conditions: timepoint 72 hour

COc1ccc([C@H]2C[C@H]3CC[C@@H](C2)N3C(=O)c2cnn(C(C)C)c2)cc1
% Inhibition: 5%
Z score: -0.61

CC(C)[C@H](Cn1ccnc1)NC(=O)CCN1CCCCCCC1
% Inhibition: -12%
Z score: 1.65

O=C(Cc1ccc(F)cc1)N1CC(Nc2cnccn2)C1
% Inhibition: -25%
Z score: 2.89

Cn1cc(S(=O)(=O)N2CCN(c3cccc(OCc4ccccc4Cl)c3)CC2)cn1
% Inhibition: 1%
Z score: -0.12

Cc1ncoc1C(=O)N1CCC[C@H]1c1ncc(C)n1Cc1cccnc1
% Inhibition: -7%
Z score: 0.88

CCc1n[nH]c(C(=O)NCC2(CO)COC2)c1Br
% Inhibition: 1%
Z score: -0.21

COc1ccc(CC(=O)N2CCC(N3CCN(Cc4ccccc4)C(=O)C3=O)CC2)c(Cl)c1
% Inhibition: -15%
Z score: 2.02

CN1CCCN(C(=O)c2csnn2)c2cc(F)ccc21
% Inhibition: 8%
Z score: -0.97

OCC(CO)n1ccnc1-c1ccc(-n2cccn2)cc1
% Inhibition: -9%
Z score: 1.26

O=C(CC1CCCC1)NC1CCN(Cc2cccc3nccn23)CC1
% Inhibition: -1%
Z score: 0.18

CN(CCn1cccn1)C(=O)c1onc2c1CCCC2
% Inhibition: -10%
Z score: 1.51

Cc1cccc(-c2ccc(C(=O)NCc3nc4ccccc4s3)c(N3CCC(O)CC3)n2)c1
% Inhibition: -9%
Z score: 1.34

CCc1ncnc(NCc2c[nH]c(C(C)C)n2)c1F
% Inhibition: 0%
Z score: 0.08

Cc1cc(C)cc(NC(=O)N2CCC(C)(C(=O)NCc3ccc4c(c3)OCO4)CC2)c1
% Inhibition: -6%
Z score: 0.97

O=C(Cn1cccn1)NCc1cccnc1N1CCOCC1
% Inhibition: -3%
Z score: 0.47

CCc1[nH]nc(-c2ccccc2OC)c1NC(=O)C1CCCCC1
% Inhibition: -8%
Z score: 1.27

Cc1csc(C(=O)N[C@H]2CCn3nccc3C2)c1
% Inhibition: -14%
Z score: 2.19

Cc1nnc(CN2CCN(C)CC23CCCCC3)o1
% Inhibition: -6%
Z score: 0.86

CNC(=O)CN1CC[C@@](F)(c2cccc(Cl)c2)C1
% Inhibition: -7%
Z score: 0.96

CC(C)Nc1cccc(C(F)(F)F)c1
% Inhibition: 4%
Z score: -0.58

Cc1cc(CNCc2nncn2C(C)C)cc(C)c1OC(F)F
% Inhibition: -8%
Z score: 1.31

CO[C@@]12CC[C@@H](NC(=O)c3ccccc3)C[C@@H]1N(C(=O)c1nc(C)c[nH]1)CC2
% Inhibition: -2%
Z score: 0.33

FC(F)(F)c1ccc(CCNc2cnccn2)nc1
% Inhibition: -27%
Z score: 2.87

OCCc1cn(C2CCCC2)nc1C(F)(F)F
% Inhibition: 1%
Z score: -0.18

N#Cc1ccc(NC(=O)[C@](F)(OC(F)(F)C(F)(F)C(F)(F)F)C(F)(F)F)cc1
% Inhibition: 47%
Z score: -6.1

COC[C@H]1[C@@H](NS(=O)(=O)CC(C)C)[C@H]2CCO[C@H]21
% Inhibition: -7%
Z score: 1.04

CCN(CC)C[C@H](C)OC(=O)c1cccc(F)c1
% Inhibition: 27%
Z score: -3.11

CC1CCN(C(=O)c2ccccc2N2CCC(NC(=O)c3cccc(Cl)c3)CC2)CC1
% Inhibition: -3%
Z score: 0.58

CC1(CNC(=O)Nc2ccc(C#N)nc2)COC1
% Inhibition: -2%
Z score: 0.21

O=C(Nc1ccc2c(c1)OCCCO2)C1CCCC1
% Inhibition: -13%
Z score: 1.74

COc1ccc(CCNC(=O)C[C@@H]2NC(=O)N(c3cccc4ccccc34)C2=O)cc1OC
% Inhibition (2 µM): -7% and 7%

Cc1ccc(Cn2nnc3cc(C(=O)Nc4cccnc4)ccc32)cc1
% Inhibition: -18%
Z score: 1.85

COCCCCN1CCN(C(=O)c2cccc(-c3ccc(C)nc3)c2)CC1
% Inhibition: -16%
Z score: 1.88

O=C(c1ccsc1)N1CC[C@@]2(CCCN(Cc3cccc(F)c3F)C2=O)C1
% Inhibition: -9%
Z score: 1.25

Cc1ccc(-n2cccc2CC(=O)N(C)Cc2ccccc2)cc1
% Inhibition: -11%
Z score: 1.51

Cc1ccc2c(c1)N(S(C)(=O)=O)CC[C@@H](C(=O)N1CCCC1)O2
% Inhibition: 4%
Z score: -0.48

Cc1cscc1C(=O)NC[C@@H](C(=O)O)c1ccccc1
% Inhibition: -9%
Z score: 1.6

COc1cccc(-c2cc(C(F)(F)F)n3nc(C(=O)Nc4c(C)nn(CC(=O)N5CCCC5)c4C)cc3n2)c1
% Inhibition: 3%
Z score: -0.39

Cc1c2c(=O)n(-c3nc4ccccc4s3)n(Cc3ccccc3Cl)c2cc(=O)n1CCc1c[nH]c2ccccc12
% Inhibition: 33%
Z score: -3.75

O=C(O)c1ccn2c(C(=O)c3ccc(Cl)cc3)c(-c3ccccc3)cc2c1
% Inhibition: -2%
Z score: 0.3

O=C([C@H]1CC(=O)N(c2ccc(F)cc2)C1)N1CC(c2nc(-c3ccccn3)no2)C1
% Inhibition: -1%
Z score: 0.14

C#CCN(CC#N)C(=O)CCc1ccsc1
% Inhibition: 13%
Z score: -2.33

Cc1cc(C(=O)Nc2ccn(Cc3cccc4ccccc34)n2)n2ncnc2n1
% Inhibition: 28%
Z score: -3.2

CCn1nc(CO)c2c1CCN(C(=O)c1cnn(Cc3ccccc3)c1)C2
% Inhibition: -11%
Z score: 2.04

O=C(c1cccc(S(=O)(=O)N[C@H]2C[C@@H]2c2ccccc2)c1)N1CCCC1
% Inhibition: -7%
Z score: 0.98

Cc1nc(-c2ccccc2F)sc1[C@H](C)NC(=O)Nc1cccc(-c2nnco2)c1
% Inhibition: -1%
Z score: 0.15

O=C(O)C1CN(C(=O)C2CC=CCC2c2nc3ccccc3s2)CCO1 (stereo not given)
% Inhibition: -3%
Z score: 0.43

CC(C)[C@@H](C(=O)NCCS(N)(=O)=O)c1cccc(Cl)c1
% Inhibition: 1%
Z score: -0.1

O=C(COc1c(Cl)c(Cl)c(Cl)c(Cl)c1Cl)N1CCC(c2nc3ccccc3o2)CC1
% Inhibition: -11%
Z score: 1.52

C[C@H](NC(=O)N1CC(CO)C1)C1CCC(F)(F)CC1
% Inhibition: 5%
Z score: -0.98

CC(C)CN(CC(=O)N(Cc1ccco1)C[C@H]1CCCO1)C(=O)Cc1ccccc1
% Inhibition: -9%
Z score: 1.7

CCOC(=O)c1cc(S(=O)(=O)N2CCC[C@H]2C(=O)Nc2cccc3c2CCCC3)cn1C
% Inhibition: -5%
Z score: 0.97

CCn1c(C)nc2cc(NS(=O)(=O)c3ccccc3)cc(C(=O)N(C)Cc3ccsc3)c21
% Inhibition: 6%
Z score: -1.16

CCNc1ncc(C(=O)N(C)Cc2ccoc2)cn1
% Inhibition: -5%
Z score: 0.88

Cc1ccc2[nH]c(=O)cc(C(=O)N3CCCCCCC3)c2c1
% Inhibition: -7%
Z score: 0.71

O=C([C@@H](O)Cc1c(F)cccc1Cl)N1Cc2cccc(Cl)c2C1
% Inhibition: -14%
Z score: 1.17

O=C(CCC1CCCC1)Nc1cnn(-c2ncncc2N2CCOCC2)c1
% Inhibition: -1%
Z score: 0.09

Cc1cc(C(=O)NCCc2cccnc2)no1
% Inhibition: -12%
Z score: 2.12

CCOc1ccc2nc(-n3nc(C)c4c3NC(=O)C[C@@H]4c3ccncc3)sc2c1
% Inhibition: -14%
Z score: 2.18

Cc1nc2cc(CC(=O)NCc3cncn3C3CC3)ccc2[nH]1
% Inhibition: -7%
Z score: 1.25

Cc1ccc(NC(=O)COC(=O)CN2C(=O)COc3ccccc32)cc1
% Inhibition: 4%
Z score: -0.69

CCC1CN(c2cc3nncn3c(C)n2)CC(CC)O1 (stereo not given)
% Inhibition: 4%
Z score: -0.71

Cc1nnc(CN(C)C(=O)c2ccc(N(C)C)cc2)o1
% Inhibition: -10%
Z score: 1.36

CC(=O)Nc1ccc(-c2c(-c3ccc4c(c3)OCO4)nn(-c3cc(C)ccc3C)c2OC(C)=O)cc1
% Inhibition: 5%
Z score: -0.99

Cc1cc(C)c(C#N)c(N2CCC3(CCC(=O)N(CCc4c[nH]cn4)C3)CC2)n1
% Inhibition: -18%
Z score: 2.04

CC(C)(C(=O)N1CC(=O)N(CCC(F)(F)F)C1)C1CCC(O)CC1 (stereo not given)
% Inhibition: -11%
Z score: 1.28

COCCN(Cc1ccsc1)S(=O)(=O)CCc1ccc(OC)cc1
% Inhibition: 1%
Z score: -0.19

CCCc1nc(N[C@@H](CC)c2nc(C)c(C)s2)c2cnn(C)c2n1
% Inhibition: -20%
Z score: 1.83

Cc1cc(C)c(-c2noc(C)n2)c(NC(=O)c2ccc(C)c(C)c2)n1
% Inhibition: -5%
Z score: 0.6

O=S(=O)(N1CCOCC1)N1CCc2ccccc21
% Inhibition: -9%
Z score: 1.2

O=C(c1nnc(-c2csc(S(=O)(=O)NC3CCCC3)c2)o1)N1CCCCC1
% Inhibition: -5%
Z score: 0.62

CCC(C)(NC(=O)C1CCOc2ccc(Cl)cc21)c1nccs1 (stereo not given)
% Inhibition: -8%
Z score: 1.36

O=C(c1nc(C2CCCC2)nc2c1OCCO2)N1CCCC1
% Inhibition: -8%
Z score: 1.11

C[C@H](Oc1ccc(NC(=O)c2n[nH]c3c2CCCC3)cc1F)C(=O)O
% Inhibition: -2%
Z score: 0.25

Cc1cnc2c(c1Nc1ccc(Nc3ccccc3)cc1)c(=O)n(C)c(=O)n2C
% Inhibition: 9%
Z score: -1.2

COC[C@H]1[C@H](NC(=O)c2ccc(OC)c(F)c2F)[C@H]2CCO[C@H]21
% Inhibition: -5%
Z score: 0.51

O=C(c1ccc(F)cc1)N1C[C@@H]2C[C@H](C1)c1c(-c3ccc(OC(F)(F)F)cc3)ccc(=O)n1C2
% Inhibition: -1%
Z score: 0.15

C=CCOC(=S)NC(=O)Cc1ccccc1Cl
% Inhibition: 36%
Z score: -1.06

Cc1ccccc1C[C@@H](C1CCN(C(=O)CCCc2ccccc2)CC1)N(C)C(=O)Cn1cccn1
% Inhibition: -4%
Z score: 0.83

C[C@H](NC(=O)Nc1ccc(C(N)=O)c(Cl)c1)C1=CCCCC1
% Inhibition: -7%
Z score: 1.38

Cc1cc(Br)ccc1NC(=O)[C@@H]1CCO1
% Inhibition: 9%
Z score: -1.24

C[C@H]1c2ccsc2CCN1C(=O)c1ccc(C(=O)O)s1
% Inhibition: -25%
Z score: 3.95

COc1ccc(NC(=O)Cc2nc(Cc3ccc(F)cc3)n[nH]2)cc1
% Inhibition: -4%
Z score: 0.66
